Data: PubChem BioAssay AID1645887 (National Center for Advancing Translational Sciences (NCATS), 2021)
Several values for one entry are separate records, joined by “and”; a condition that tells them apart may be missing. Equal values may be shown once. The whole screen tested about 16,000 compounds, of which about 40 (0.2%) were called active. Roughly 1% stayed inconclusive and do not appear here. The call rests on the fitted dose curve; in most records, active means well fitted activation curve with a large enough effect; inconclusive means small, poorly fitted or top-dose-only effect, or another doubt; inactive means no such curve, though single readings can be large or run the other way. This is one part of the list.

Each compound was assayed against Rap guanine nucleotide exchange factor 4 (Homo sapiens) (UniProt Q8WZA2) (assay: Validation qHTS for agonist of cAMP-regulated guanine nucleotide exchange factor 4 (EPAC2)). Settings: EPAC2 Rap1B BODIPY-GDP exchange, fluorescence; activation: stronger effect = higher value.
Procedure, shortened: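 Signal normalized against 6.5 mM cAMP as agonist control. Mix of EPAC2 (100 nM), RAP1B-BODIPY-GDP (250 nM) and GDP (50 uM) was read kinetically at 480/540 nm, every 5 min over 30 min, after 5 min room-temperature incubation with compound.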
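Further: exchange makes BODIPY-GDP fluorescence drop when released from Rap1B; series mostly up to about 150 µM.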
On the % scale 0 is the no-effect control and ±100 the full control effect.

UniProt Q8WZA2, sequence (Q8WZA2 whole entry, looked up): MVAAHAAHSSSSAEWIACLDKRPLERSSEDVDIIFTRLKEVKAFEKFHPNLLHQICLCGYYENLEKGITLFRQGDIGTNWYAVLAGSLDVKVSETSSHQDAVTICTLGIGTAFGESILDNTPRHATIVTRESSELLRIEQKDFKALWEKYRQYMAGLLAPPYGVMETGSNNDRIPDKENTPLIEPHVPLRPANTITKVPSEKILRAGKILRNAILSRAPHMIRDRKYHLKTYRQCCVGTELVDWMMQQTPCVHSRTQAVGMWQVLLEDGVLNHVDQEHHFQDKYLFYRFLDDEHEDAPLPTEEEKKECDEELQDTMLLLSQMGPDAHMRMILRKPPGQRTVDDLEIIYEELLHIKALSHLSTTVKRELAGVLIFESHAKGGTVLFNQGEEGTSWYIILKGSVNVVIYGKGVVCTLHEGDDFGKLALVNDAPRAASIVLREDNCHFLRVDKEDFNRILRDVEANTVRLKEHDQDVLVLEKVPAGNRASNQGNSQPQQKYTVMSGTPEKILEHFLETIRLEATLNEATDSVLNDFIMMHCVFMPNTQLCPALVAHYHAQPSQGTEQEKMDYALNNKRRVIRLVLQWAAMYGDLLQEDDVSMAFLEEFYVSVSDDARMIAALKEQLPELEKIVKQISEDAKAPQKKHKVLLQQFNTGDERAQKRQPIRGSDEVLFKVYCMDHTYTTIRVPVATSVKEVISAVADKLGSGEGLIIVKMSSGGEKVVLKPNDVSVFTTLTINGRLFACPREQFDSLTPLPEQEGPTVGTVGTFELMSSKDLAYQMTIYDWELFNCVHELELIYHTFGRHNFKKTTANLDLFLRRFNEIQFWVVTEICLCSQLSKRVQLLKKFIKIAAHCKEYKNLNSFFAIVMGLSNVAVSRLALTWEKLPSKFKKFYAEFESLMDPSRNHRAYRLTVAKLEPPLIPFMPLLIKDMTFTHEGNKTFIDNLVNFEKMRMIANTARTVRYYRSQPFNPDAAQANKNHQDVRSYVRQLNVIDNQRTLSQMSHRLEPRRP

activation, inactive:
O=C(Nc1ccccc1)N1CCCC2(CCN(C(=O)c3ccco3)CC2)C1 2.47%
COc1ccccc1N1CCN(c2nc(CNC(=O)C3CCOC(C)(C)C3)nc3ccccc23)CC1 (stereo unspecified) -25.8%
NCC1OC(O[C@H]2[C@H](O)[C@@H](OC3C(O)C(N)CC(N)C3OC3OC(CO)C(O)C(O)C3N)O[C@@H]2CO)C(N)C(O)C1O (stereo partly specified) -10%
COc1cc(=O)n2c(c1C(=O)NC(C)c1ccco1)CCN(CC=C(C)C)CC2 (stereo unspecified) 2.32%
COc1cccc(Cn2c(=O)c(-c3cccs3)nc3cncnc32)c1 13.3%
c1nc(N2CCOCC2)c2cc(-c3ccoc3)ccc2n1 -7.91%
CC[N+](CC)(CC)CCOc1ccc(/C=C/c2ccccc2)cc1 5.25% and 12.2%
Cc1ccccc1C(=O)Nc1ccc(C(=O)N2CCCC(O)c3cc(Cl)ccc32)c(C)c1 (stereo unspecified) 12.6%
N#Cc1cccc(NC(=O)N2CCCC3(CCN(C(=O)c4ccncc4)CC3)C2)c1 -9.21%
COc1ccc(CNc2ncnc3ccc(-c4c(C)noc4C)cc23)c(OC)c1 7.65%
FC(F)(F)c1ccccc1-c1cncnc1NCCc1cnc[nH]1 -13.9%
COC(=O)c1cc(CNC(=O)c2ccc3ccccc3n2)cc(NC(=O)c2cccc(OC)c2)c1 -22.2%
COc1ccc(NC(=O)[C@@H]2CC=C[C@@H]3CCN(Cc4ccccc4)C(=O)[C@@H]32)cc1 -25.6%
COc1ccc(CNc2ncnc3ccc(-c4cccc(C#N)c4)cc23)c(OC)c1 4.8%
Cc1cn(C2OC[C@@H](O)[C@@H]2CO)c(=O)[nH]c1=O (stereo partly specified) -12.8%
C=C1C(CCl)(CCl)C2(Cl)C(Cl)C(Cl)C1(Cl)C2(Cl)Cl (stereo unspecified) -5%
CC(C)c1cc2c(cc1S(=O)(=O)O)[C@@]1(C)CCC[C@@](C)(C(=O)O)[C@@H]1CC2 -16.8%
CC(C)CN1CCC(=O)N([C@H](CN=[N+]=[N-])Cc2ccccc2)CC1 -31.8%
CC(C)c1c(O)ccc2c1CCC1[C@@](C)(C=O)CCC[C@@]21C (stereo partly specified) 22.5%
CO/N=C(\C(=O)N[C@@H]1C(=O)N2C(C(=O)O)=C(CSc3nnnn3C)CS[C@H]12)c1csc(N)n1 -18.3%
CCC(C(=O)NC(=O)NC(C)=O)c1ccccc1 (stereo unspecified) -33.2%
O=c1c(-c2cc(F)cc(F)c2)nc2cncnc2n1-c1ccccc1 -11.6%
Cc1cccc(C)c1NC(=O)C(C)N (stereo unspecified) -18.1% and 5.87%
O=C(O)C1CCCNC1 (stereo unspecified) -17.2% and -13%
Cc1noc(C)c1C(=O)N1CCC[C@@]2(CCN(C(c3ccccc3)c3ccccc3)C2)C1 10%
CC(C(=O)O)c1ccc2c(c1)[nH]c1ccc(Cl)cc12 (stereo unspecified) 7.27%
O=C(c1cccc(Cn2cccn2)c1)N1CCC(n2c(C3CCCO3)nc3cc(C(F)(F)F)ccc32)CC1 (stereo unspecified) -4.31%
CC1CC[C@@]2(OC1)OC1CC3C4CC[C@@H]5CC(O)CC[C@@]5(C)C4CC[C@]3(C)C1C2C (stereo partly specified) 0.782%
CC(=O)N1CCC2(CC1)CCN(c1ccncc1)CC2 -12%
CC(=O)OC(C)(C)C1Cc2cc3ccc(=O)oc3cc2O1 (stereo unspecified) -7.61%
O=C(C[n+]1csc2ccccc21)c1ccccc1 -11.6%
CCCCc1cc2ccccc2c(OCCN(C)C)n1 -17.9%
C/C=C(/CC[C@@H](C)[C@H]1CC[C@H]2C3=CC[C@H]4[C@H](C)[C@@H](O)CC[C@]4(C)[C@H]3CC[C@]12C)C(C)C -14.3%
Cc1ccc2c(c1)CN(CCNC(=O)c1c(-c3ccccc3)noc1C)CC(C)O2 (stereo unspecified) -6.02%
CCc1nc2cc(C(=O)NCC3CCS(=O)(=O)C3)cc(NC(=O)c3ccccc3OC)c2n1C (stereo unspecified) -18.6%
CC(C)NC(=O)N1CCCC2(CCN(C(=O)c3cccn3C)CC2)C1 -3.58%
COc1ccc(OC)c2c(/C=C/c3c(C)[nH]c4ccccc34)ccnc12 -11.1%
NC(=S)NCCC[C@H](N)C(=O)O 4.05% and -27.2%
COc1cccc(-c2cc(NCc3cccnc3)ncn2)c1 -0.362%
CCNc1ncc2nc(C)c(=O)n(Cc3cccc(OC)c3)c2n1 -8.52%
C[C@H]1O[C@@H](O[C@H]2[C@@H](O)C[C@H](O[C@H]3[C@@H](O)C[C@H](O[C@H]4CC[C@@]5(C)[C@H](CC[C@@H]6[C@@H]5C[C@@H](O)[C@]5(C)[C@@H](C7=CC(=O)OC7)CC[C@]65O)C4)O[C@@H]3C)O[C@@H]2C)C[C@H](O)[C@@H]1O -28.2% and 8.52%
CN1CCN(C2=Nc3cc(F)ccc3Cc3ccccc32)CC1 -0.804% and -3.25%
O=P(O)(O)CP(=O)(O)O 10.9%
CSc1ccccc1N1CCN(CCCCCC(=O)NC2CCCc3ccccc32)CC1 (stereo unspecified) -26.5%
Cc1cnc(CNc2ncncc2-c2c(C)noc2C)cn1 4.58%
C/C=C(/C)C(=O)OC1Cc2c(ccc3ccc(=O)oc23)OC1(C)C (stereo unspecified) 5.45%
CC[C@@H]1/C=C(\C)C[C@H](C)C[C@H](OC)[C@H]2O[C@@](O)(C(=O)C(=O)N3CCCC[C@H]3C(=O)O[C@H](/C(C)=C/[C@@H]3CC[C@@H](Cl)[C@H](OC)C3)[C@H](C)[C@@H](O)CC1=O)[C@H](C)C[C@@H]2OC -6.81%
CN(C)c1nc(CN2CCCCC2c2cccnc2)nc2ccccc12 (stereo unspecified) -10%
COc1ccc(C(=O)N2CCC[C@@]3(CCN(Cc4ccccc4)C3)C2)cc1 -2.56%
O=C1[C@H](Cc2ccccc2)NC/C=C\C[C@H](c2ccc(Cl)cc2)N1Cc1ccc(Cl)cc1 -12.1%
C[C@@](N)(Cc1ccc(O)c(O)c1)C(=O)O -26.5%
NC(N)=NC(N)=Nc1cccc(Cl)c1 -38.6% and 6.36% and -2.61%
CC(C)CN1CCC(=O)N(CCSc2ccccc2)CC1 -18.7%
CO[C@@]1(NC(=O)Cc2cccs2)C(=O)N2C(C(=O)O)=C(COC(N)=O)CSC21 (stereo partly specified) 5.6%
Cc1noc(C)c1-c1cncnc1N1CCN(C)CC1 -16.9%
COc1cc(C(=O)N(Cc2cc3ccc(C)cc3nc2N(C)C)C2CC2)cc(OC)c1OC -16.7%
O=C(c1ccc(F)c(F)c1)N1CCOc2ccc(CN3CCN(CCO)CC3)cc2C1 -0.745%
NC(CCC(=O)NC(CCSC(CC(=O)O)C(=O)O)C(=O)NCC(=O)O)C(=O)O (stereo unspecified) -6.13%
COc1ccc2c(c1OC)C(=O)O[C@H]2C1c2c(cc3c(c2OC)OCO3)CCN1C (stereo partly specified) -9.37% and -6.05%
O=c1c(O)c(-c2ccc(O)cc2)oc2cc(O)ccc12 -3.94%
C[C@H](CCC(=O)O)[C@H]1CC[C@H]2[C@@H]3[C@H](O)C[C@@H]4C[C@H](O)CC[C@]4(C)[C@H]3C[C@H](O)[C@]12C -39.2%
O=c1c(O)c(-c2cccc(O)c2)oc2ccccc12 -5.15%
O=c1ccc2cc(O)c(O)cc2o1 7.55%
COc1ccc(CCN(C)CCCN2CCc3cc(OC)c(OC)cc3CC2=O)cc1OC -0.129%
Cc1noc(C)c1-c1cc(N2CCNCC2)ncn1 -9.61%
c1csc(CNc2nc(CN3CCCC(c4nc5ccccc5o4)C3)nc3ccccc23)c1 (stereo unspecified) 1.82%
NC(=O)c1ccc[n+]([C@@H]2OC(COP(=O)([O-])OP(=O)(O)OCC3OC(n4cnc5c(N)ncnc54)C(OP(=O)(O)O)C3O)C(O)C2O)c1 (stereo partly specified) 3.09%
COc1ccc(C2(C#N)CCC(C(=O)O)CC2)cc1OC1CCCC1 (stereo unspecified) -2.45%
COc1cccc(-c2nc(N(C)Cc3ccco3)c3ccccc3n2)c1 10.5%
Cc1noc(C)c1-c1nc(Nc2ccccc2)c2ccccc2n1 -6.81%
Cc1c(C(=O)NCC2COCCO2)cnn1-c1ncc2c(n1)-c1ccccc1CC2 (stereo unspecified) -13.1%
CC(=O)C[C@H]1c2cc(C(F)(F)F)ccc2S(=O)(=O)N1Cc1ccccc1 -6.75%
O=C(NCc1cccnc1)[C@@H]1CC=C[C@@H]2CCN(Cc3ccc(Cl)c(Cl)c3)C(=O)[C@@H]21 -7.57%
COc1cc(N)c(Cl)cc1C(=O)OCCCN1CCCCC1 -21.2%
CCCC1OC2CC3C4CCC5=CC(=O)C=CC5(C)C4C(O)CC3(C)[C@]2(C(=O)CO)O1 (stereo partly specified) 5.25%
CCNc1ncc2nc(-c3cc(F)cc(F)c3)c(=O)n(C[C@H]3CCCO3)c2n1 -9.2%
COc1ccccc1CNc1ccnc(-c2ccccc2OC)n1 -9.46%
N=C(N)c1ccc(OCCCOc2ccc(C(=N)N)cc2Br)c(Br)c1 -22.4%
O=c1c(-c2ccc(F)cc2)nc2cnc(Oc3ccccc3)nc2n1Cc1cccs1 -23.4%
CC(C(=O)O)c1ccc(-c2ccccc2)c(F)c1 (stereo unspecified) -13% and 7.96%
C=C1C(C2(C)C=CC(=O)C(C)(C)C2CC(=O)OC)CC[C@@]2(C)C(c3ccoc3)OC(=O)C3OC132 (stereo partly specified) 8.54%
